Test results taken from ChEMBL document CHEMBL1157539, “Thousands of chemical starting points for antimalarial lead identification” (Nature, 2010).
Where “and” joins values, the source holds several entries; their conditions need not be identical. Identical values can stand only once. Whole data set: some 13,000 compounds, median “IFI” near 4, cut for the highest 2% near 17. The list shows a part of the results.

Test: GSK_TCMDC: Inhibition Frequency Index (IFI). The number of non-kinase HTS assays where a compound showed > 50 % inhibition, expressed as a percentage of the number of such assays in which the compound was tested (-0 is zero)
Type: functional

In the case of `COC(=O)c1sccc1NC(=S)NC1CCC(CN2CCC(c3c[nH]c4ccccc34)CC2)CC1` (configuration not stated), the IFI is reported as 5.67% and 5.71%.
In the case of `O=C(/C=C/c1cccc(F)c1)NC1CCC(CN2CCC(c3c[nH]c4ccccc34)CC2)CC1` (configuration not stated), the IFI is reported as 4.86% and 4.93%.
With `COC(=O)c1ccc(CC(C)NCC(O)c2cccc(C(F)(F)F)c2)cc1` (configuration not stated) the IFI was 0.72% and 4.35% and 2.17%.
With `S=C(Nc1ccc2c(c1)OCCO2)NC1CCC(CN2CCC(c3c[nH]c4ccccc34)CC2)CC1` (configuration not stated) the IFI was 6.43% and 4.9%.
In the case of `Cc1ccc(CC(C)NCC(O)c2cccc(C(F)(F)F)c2)cc1` (configuration not stated), the IFI is reported as 2.92% and 2.88%.
For `O=C(/C=C/c1ccccc1O)NC1CCC(CN2CCC(c3c[nH]c4ccccc34)CC2)CC1` (configuration not stated), the IFI was 2.8% and 2.19%.
For `O=C(/C=C/c1cccc(Cl)c1)NC1CCC(CN2CCC(c3c[nH]c4ccccc34)CC2)CC1` (configuration not stated), the IFI was 6.52% and 5.63%.

Compared with `CC(=O)Nc1ccc(CN2CCC(N(C)c3ccc(NC(=O)c4cccc(C)c4)cc3)CC2)cc1`, `CC(C)CNCc1ccc(-c2cccc(CN(C(=O)Nc3ccccc3)C3CCN(Cc4ccccc4)CC3)c2)cc1` is lower in IFI: 8.82% for the first, 7.75% for the second.

Compared with `Cc1cc2cc(CNCCc3ccccc3Br)ccc2nc1N`, `CNCCc1c(O)ccc2ccccc12` is lower in IFI: 7.09% for the first, -0% for the second.

First: CC(Cc1ccc(OCCCCOc2ccccc2)cc1)NCCCN1CCOCC1 (configuration not stated)
Second: CC(Cc1ccc(OCCCCOc2ccccc2)cc1)NCCC1CCCN1C (configuration not stated)
The IFI of the first is lower: 30.1% for the first, 32.5% for the second.

First: CN1CC=C(c2c[nH]c3ccc(-c4ccccc4)cc23)CC1
Second: COc1ccc(C(=O)c2ccc3[nH]cc(C4=CCN(C)CC4)c3c2)cc1
The IFI of the first is lower: -0% for the first, 0.82% for the second.

Going from `N#Cc1c(Cl)cccc1Oc1ccc(S(=O)(=O)N2CCC(CN3CCC(c4c[nH]c5ccccc45)CC3)CC2)cc1` to `O=C(Nc1ccc(Cl)c(Cl)c1)N1CCC(CN2CCC(c3c[nH]c4ccccc34)CC2)CC1`, the IFI falls from 5.63% to 4.23%.

First: CCCc1ccc2c(c1O)CCC(N(CCC)CCC)C2 (configuration not stated)
Second: CCCCCCC(CC)c1cc(O)c2c(c1)OC(C)(C)c1ccncc1-2 (configuration not stated)
The IFI of the first is lower: -0% for the first, 1.49% for the second.

Compared with `CNC(=O)c1ccc2[nH]cc(C3CCN(CC4CCC(NC(=O)/C=C/c5ccccc5Cl)CC4)CC3)c2c1` (configuration not stated), `Cc1cccc2[nH]cc(C3CCN(CC4CCC(NC(=O)/C=C/c5ccc(Cl)c(Cl)c5)CC4)CC3)c12` (configuration not stated) is higher in IFI: 0.75% for the first, 12.3% for the second.

Going from `N[C@@H](CCN1CCC(c2cccc(O)c2)CC1)Cc1ccc(F)c(F)c1` to `Oc1ccc(CN2CCN(CCOC(c3ccccc3)c3ccc(Cl)cc3)CC2)cc1Cl` (configuration not stated), the IFI falls from 12.1% to 5%.

Going from `O=C(/C=C/c1ccc(Cl)c(Cl)c1)NCCCCCN1C2CCC1CC(c1c[nH]c3ccccc13)C2` (configuration not stated) to `O=C(/C=C/c1ccc(Cl)c(Cl)c1)NCc1ccc(CN2CCC(c3c[nH]c4ccccc34)CC2)cc1`, the IFI rises from 4.9% to 10.4%.

First: CC[C@H]1CN2CC[C@H]1C[C@H]2[C@H](O)c1cc(-c2cccc(C)c2)nc2ccc(OC)cc12
Second: CC[C@H]1CN2CC[C@H]1C[C@H]2[C@H](O)c1cc(-c2ccccc2F)nc2ccc(OC)cc12
The IFI of the first is higher: 6.12% for the first, 2.76% for the second.

Compared with `NC(=O)CN1CC=C(c2c[nH]c3ccc(Br)cc23)CC1`, `COc1ccc2[nH]cc(C3=CCN(CC4CC4C(=O)c4ccccc4)CC3)c2n1` (configuration not stated) is higher in IFI: 0.79% for the first, 3.42% for the second.

Going from `O=C(NCCC1CCN(CCc2c[nH]c3ccccc23)CC1)Nc1ccc(Cl)c(Cl)c1` to `O=C(/C=C/c1ccc(Cl)c(Cl)c1)NC1CCC(CN2CCC(c3c[nH]c4ccccc34)C(O)C2)CC1` (configuration not stated), the IFI rises from 7.46% to 9.35%.

First: COC(=O)c1ccc(CC(C)NCC(O)c2ccccc2Cl)cc1 (configuration not stated)
Second: CC(Cc1ccc(Oc2ccccc2)cc1)NCC(O)c1cccc(C(F)(F)F)c1 (configuration not stated)
The IFI of the first is lower: 3.03% for the first, 4.96% for the second.

First: FC(F)(F)c1ccc(NC(=S)N2CCC(CN3CCC(c4c[nH]c5ccccc45)CC3)CC2)cc1
Second: O=C(/C=C/c1ccc(Cl)c(Cl)c1)N1CCC(CN2CCC(c3c(Br)[nH]c4ccccc34)CC2)CC1
The IFI of the first is higher: 7.19% for the first, 4.38% for the second.

First: COCC(=O)N(Cc1ccccc1-c1cccc(CNCCc2ccccc2)c1)C1CCN(Cc2ccccc2)CC1
Second: CC(=O)N(Cc1ccccc1-c1cccc(CNCCc2ccccc2)c1)C1CCN(Cc2ccccc2)CC1
The IFI of the first is lower: 4.41% for the first, 4.51% for the second.

`C=C[C@H]1CN2CC[C@H]1C[C@H]2[C@H](OS(=O)(=O)O)c1ccnc2ccccc12` and `CC[C@H]1CN2CC[C@H]1C[C@H]2[C@H](O)c1ccnc2ccc(O)cc12` are the same in IFI: -0% for the first, -0% for the second.

First: NCc1cccc(-c2cccc(CN(C(=O)Nc3ccccc3)C3CCN(Cc4ccccc4)CC3)c2)c1
Second: CC(=O)N(Cc1cccc(-c2cccc(CNCc3ccc4c(c3)OCO4)c2)c1)C1CCN(Cc2ccccc2)CC1
The IFI of the first is higher: 6.52% for the first, 4.51% for the second.

Compared with `Oc1ccccc1CNCC(O)c1cc(C(F)(F)F)cc(C(F)(F)F)c1` (configuration not stated), `Cc1ccc(CC(C)(C)NCC(O)c2cccc(C(F)(F)F)c2)cc1` (configuration not stated) is lower in IFI: 10.1% for the first, 6.62% for the second.

First: COc1cc(C(=O)NC2CCC(CN3CCC(c4c[nH]c5ccccc45)CC3)CC2)cc(Cl)n1 (configuration not stated)
Second: COCCNCc1ccc(-c2cccc(CN(C(=O)CCC3CCCC3)C3CCN(Cc4ccccc4)CC3)c2)cc1
The IFI of the first is lower: 2.19% for the first, 7.86% for the second.

Compared with `Cc1cc(CN2CCN(CCOC(c3ccccc3)c3ccccc3)CC2)ccc1O`, `CC(C)CNCc1cccc(-c2ccc(CN(C(=O)NC3CCCCC3)C3CCN(Cc4ccccc4)CC3)cc2)c1` is higher in IFI: 6.34% for the first, 8.46% for the second.

First: COc1cc(CC(C)NCC(O)c2cccc(C(F)(F)F)c2)ccc1OCc1ccccc1 (configuration not stated)
Second: CC(Cc1ccc(OCc2ccccc2)c(Cl)c1)NCC(O)c1cccc(C(F)(F)F)c1 (configuration not stated)
The IFI of the first is lower: 1.45% for the first, 4.29% for the second.

First: CC[C@H]1CN2CC[C@H]1C[C@H]2[C@H](O)c1cc(/C=C/c2ccc(F)cc2)nc2ccc(OC)cc12
Second: CC[C@H]1CN2CC[C@H]1C[C@H]2[C@H](O)c1cc(Cl)nc2ccc(OC)cc12
The IFI of the first is higher: 4.2% for the first, 0.72% for the second.

Going from `CC[C@H]1CN2CC[C@H]1C[C@@H]2[C@@H](OC(=O)c1ccc(Cl)cc1)c1ccnc2ccc(OC)cc12` to `CCOc1ccc(CN(CCc2ccc3c(c2)OCO3)Cc2cc(OC)ccc2O)cc1`, the IFI rises from 2.99% to 4.11%.

First: CO/C=C(/C(=O)OC)c1ccccc1Oc1cc(Oc2ccccc2C#N)ncn1
Second: Cc1nc(C)c(-c2ccc(Oc3ccc(OC(F)(F)F)cc3)cc2)c(OC(=O)N(CCNC(C)C)C(C)C)c1Br
The IFI of the first is lower: 6.5% for the first, 18% for the second.

Compared with `CCN1CCC(N2CCC(n3c(C)nc4cc(C(F)(F)F)ccc43)CC2)CC1`, `CCCCNC(c1ccc(Cl)cc1)C(O)c1ccc(Cl)cc1` (configuration not stated) is lower in IFI: 2.38% for the first, 2.27% for the second.
